{"source": "paper PMC12136788", "binders": {"B1": {"name": "chr22:35691198:35691199:+_ENSG00000100281_ENST00000216106|hu_hu|FALSE|FALSE (ssRNA)", "RNA": "GGGAGUUCUACAGUCCGACGAUCCCUUUAAGCAACAUAGCCCUGUGACAACACUGGUGGGGAGAAGGGAAGAAAUUAAAUAGGAUGCAGAUGGGCUACACUGUCCCCAAAGAUUUACUUUGAUGCUGUAGUGCUCUGUCAGGGCAACAGAGGAUUGAGCAUCA"}, "B2": {"name": "chr3:41267201:41267202:+_ENSG00000168036_ENST00000349496|hu_hu|motif|central (ssRNA)", "RNA": "GGGAGUUCUACAGUCCGACGAUCCAAGAAUUUAACAUUUGUUUUGUUGAGCAAGGCAACCAUUUUCUGCAGCCCACCAGCGGAACGCACUGCCAUUUUAGCUCCUUCUUGAUGUAAUAAAAGGUUGUGGAGAGUUGUAAUGGCCAACAGAGGAUUGAGCAUCA"}, "B3": {"name": "chr11:101919151:101919152:-_ENSMUSG00000017314_ENSMUST00000017458|mus_mus|FALSE|FALSE (ssRNA)", "RNA": "GGGAGUUCUACAGUCCGACGAUCAAAUGAGAUUCCUAAUAUAAUAAAUAUAUUUCUAGCAUUUGUAAUAAAUAUUCUGUCUAUUCUCCCUCCCUCCCCUUCUCUAGGAUAUGGGCACACAGUGGUUCAGGGACAAGCUUGGGCCAACAGAGGAUUGAGCAUCA"}, "B4": {"name": "chr9:108415247:108415248:+_ENSMUSG00000032604_ENSMUST00000006838|mus_mus|FALSE|FALSE (ssRNA)", "RNA": "GGGAGUUCUACAGUCCGACGAUCCAUUGCCUCAAAGAGCAGCAAUGAUUCUUCCUUAGGCCUGUCCCUCCAUGGAGAAGGUAAAGGGUUAUGGCCUUUGAGCUCUUCCACUCUCUGGUGACACACAUAAGCAAGACCCCCAUGCAACAGAGGAUUGAGCAUCA"}, "B5": {"name": "chr2:24297012:24297013:-_ENSG00000115128_ENST00000233468|hu_hu|FALSE|FALSE (ssRNA)", "RNA": "GGGAGUUCUACAGUCCGACGAUCACGAAUAGGUCCAUAUUUCCCAAAUAUAUCAUACAUUUCUUCAGCUGUGAUUUUGUAUGGCAAAUUUCUUAUAUACAAUAUCCGAUUUACUUCAGGUGGAAGUCGAAUGUUCGCCCUCUUCAACAGAGGAUUGAGCAUCA"}, "B6": {"name": "chr10:33190432:33190433:-_ENSG00000150093_ENST00000302278|hu_mus|hu_hu_hu_mus_True|48_48 (ssRNA)", "RNA": "GGGAGUUCUACAGUCCGACGAUCUACAUUUUCCAAACCUGCAUGUGAAUAAAACCCUGGCCACAGAGCCCCAAAACUACCCUACUGUGACUAUGGAGCUGCUGCUGUGAGCUUGGUGUUGCAAAAUCCGCCUGAGUAGGAUUCCAACAGAGGAUUGAGCAUCA"}, "B7": {"name": "chr1:45868982:45868983:+_ENSMUSG00000025995_ENSMUST00000027139|mus_hu|FALSE|FALSE (ssRNA)", "RNA": "GGGAGUUCUACAGUCCGACGAUCAGAAGUGCAGAAUAAAUCUCCUGCAGGCGAGACUGAGAUAUGUUCAAUAGUAGCUCCUAAACGCGGGAGAAACUCCUUAUUCUUCUCUGUUGCAUCGCGCCACUCUACAAGUACAGAUUCCAACAGAGGAUUGAGCAUCA"}, "B8": {"name": "chr2:48034816:48034817:-_ENSG00000138081_ENST00000403359|hu_mus|FALSE|FALSE (ssRNA)", "RNA": "GGGAGUUCUACAGUCCGACGAUCUCAUAUUCUCAAUCUGAAUACAUGUUAAACAAAAAAAAAAAAAUCAAUGCAGAAGUGCUAGCUCACAUUUUUACCAUAUUACAAAAAGCAAUUGGUACCCAUGUCCAUAAAGGCAGCAACCAACAGAGGAUUGAGCAUCA"}, "B9": {"name": "chr1:39494564:39494565:+_ENSG00000168653_ENST00000372967|hu_hu|hu_hu_hu_mus_True|68_98 (ssRNA)", "RNA": "GGGAGUUCUACAGUCCGACGAUCAUGCAUUCGCCUCAUCGUUUUCUACCGAAGCAAGCACUCUUCGAAAUCAUCAUACUCUAUCUUGCACUCCUUUUUCGCCCGGGUCCCACCGAUCCCGUGUGCACACUCUAUCCACUCUUUCAACAGAGGAUUGAGCAUCA"}, "B10": {"name": "137028346_137028466_205_5pUTR_ENSG00000105894_ENST00000348225|human|control|control (ssRNA)", "RNA": "GGGAGUUCUACAGUCCGACGAUCUCUCUCCACUUUGGAUUUUCCUCUGCUCUGGGGCUCUCUUGGCGGGAUUUUUGGACUGGAAGGCGGGGAACCUGAUCCUGCCUUUGACUCAAUUACGCCCUGACAGGGAGGGAACGGAAGCAACAGAGGAUUGAGCAUCA"}, "B11": {"name": "chr13:14287670:14287671:+_ENSMUSG00000039219_ENSMUST00000039538|mus_mus|motif|central (ssRNA)", "RNA": "GGGAGUUCUACAGUCCGACGAUCAGCAGCACUUUCUCUCUCUUUCUUCUUUAAACGUUUUCUCCUCCUAUCAAUGGAAGCGGCUUCAGAUUUUAAAGACAGAUAAUGCUUUCUGAUUUCUUGCAAUUUUUCUUGAAGAAUUGACAACAGAGGAUUGAGCAUCA"}, "B12": {"name": "chr2:163839828:163839829:+_ENSMUSG00000018326_ENSMUST00000018470|mus_hu|motif|central (ssRNA)", "RNA": "GGGAGUUCUACAGUCCGACGAUCGGAGUUCGACACAGUGGUUUGUUUGUUGUCUCCAGAUGCCACUUCAGAAAGAUACCGGAAAUAAUCUCCUUUCAUUUUCAAGUAGAACACCUUACUUUCUGGUUGUGUAGCAUUGGGAAUCAACAGAGGAUUGAGCAUCA"}, "B13": {"name": "172339047_172339167_3373_3pUTR_ENSG00000115827_ENST00000375255|human|control|control (ssRNA)", "RNA": "GGGAGUUCUACAGUCCGACGAUCACUGAAGUCUUAAGACAUCCUAUUCUGAAACACUCUUGGAAAUGGAGAAUGAACACUCUACUUUUACACAGCAUUGCAGCUGCUUUGAAACUCACACAACAUUGGUUUCUUUCUUUAGUACAACAGAGGAUUGAGCAUCA"}, "B14": {"name": "chr4:104905227:104905228:+_ENSMUSG00000028517_ENSMUST00000064139|mus_mus|FALSE|FALSE (ssRNA)", "RNA": "GGGAGUUCUACAGUCCGACGAUCAACGGAAUCUUACAAAAAUACUGACAAUUUAAUGUUUUUAUACAGUUUUUUUUCUCUAGUUGCAGUUAUUUCAUUGUAAAACAAUGGCUACCACAGAACUAUAUCUUUAGUUGAGAUUAACAACAGAGGAUUGAGCAUCA"}}, "note": "This is one part of the list.", "data": [{"molecular_target": "T1, UNK ZnF1-3 (human, UniProt Q9C0B0 31-174)", "T1 sequence": "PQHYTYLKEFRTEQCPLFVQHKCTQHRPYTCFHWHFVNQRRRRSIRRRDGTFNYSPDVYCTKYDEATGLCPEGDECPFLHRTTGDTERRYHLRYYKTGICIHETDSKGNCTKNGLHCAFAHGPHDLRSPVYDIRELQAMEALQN", "experiment": "nsRBNS (natural sequence RNA bind-n-seq); RBNS binding buffer (assumed for nsRBNS): 25 mM Tris pH 7.5, 150 mM KCl, 3 mM MgCl2, 0.01% Triton X-100, 500 ug/ml BSA, 20 U/ml SUPERase-In, 4 C; UNK is unkempt and MSI1 is Musashi-1; names of the RNAs are library labels; protein concentration not given here; high values mean tight binding", "units": {"binding signal": "enrichment R"}, "values": [{"binder": "B1", "binding signal": 1.45}, {"binder": "B2", "binding signal": 1.16}, {"binder": "B3", "binding signal": 2.27}, {"binder": "B4", "binding signal": 0.896}, {"binder": "B5", "binding signal": 0.47}, {"binder": "B6", "binding signal": 0.951}, {"binder": "B7", "binding signal": 0.826}, {"binder": "B8", "binding signal": 2.03}, {"binder": "B9", "binding signal": 0.724}, {"binder": "B10", "binding signal": 0.768}, {"binder": "B11", "binding signal": 0.899}, {"binder": "B12", "binding signal": 0.312}, {"binder": "B13", "binding signal": 0.697}, {"binder": "B14", "binding signal": 0.412}]}]}
